In PMC12040169 (PLOS Biology, 2025):
The other results are listed elsewhere or left out.

tested on: T1, C. trachomatis L2/434/Bu expressing GFP (CTL2-GFP); design: species or system HeLa; C. trachomatis total inclusion area by high-content imaging, normalised to DMSO; settings: total inclusion area; 28.5 h, 10 µM; inhibitor
T1 construct: L2/434/Bu GFP intracellular growth in HeLa cells
Summary of the method: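 Bulk GFP and resorufin signals were read first. Wells were then fixed, stained with Hoechst and imaged to detect GFP inclusions and host nuclei. MICs followed the previously described calculation.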

Compound | % of control remaining
Cc1ccc(OCc2nnc(SCC(=O)c3cccs3)n2-c2ccccc2)cc1C [CBK265033] | 110.171
O=C(Nc1ccc(Cc2ccc(O)c(NC(=O)c3ccccc3F)c2)cc1O)c1ccccc1F [CBK265766] | 93.0438
CN1CCN(c2cccc(-c3ccc(CNC(=O)OC(C)(C)C)cc3)n2)CC1 [CBK037641] | 123.579
O=C(O)c1c(Br)c(Br)c(Br)c(Br)c1C(=O)NCCc1ccccc1 [CBK261702] | 92.6826
C=C(C)CN1CCN(Cc2c[nH]nc2C(C)(C)C)CC1 [CBK282827] | 79.3584
CCNC(=S)N1CCN(CCNC=C2C(=O)CC(C)(C)CC2=O)CC1 [CBK263661] | 106.077
COc1cc(OC)c(NC(=O)C(C)Oc2ccc(Cl)c(C)c2)cc1Cl (stereo not shown) [CBK269697] | 98.1893
CCOC(=O)Nc1ccc2c(c1)N(C(=O)CN1CCN(C)CC1)c1ccccc1CC2 [CBK278194C] | 96.4397
CCn1cc(C(=O)Nc2nccs2)c(=O)c2ccc(C)nc21 [CBK307628] | 111.082
O=C(NC1CCNC1)c1ccc(F)cc1 (stereo not shown) [CBK281632] | 110.159
CSC1CCC(N(C)C(=O)NCCc2cn3cccc(C)c3n2)C1 (stereo not shown) [CBK305324] | 111.224
Cc1ccc2c(c1)cc(C(=O)N1CCOC(C(=O)N3CCCCCC3)C1)n2C (stereo not shown) [CBK286032] | 132.25
CCN(CC)CCn1c(=N)n(CC(O)c2ccc(C)cc2)c2ccccc21 (stereo not shown) [CBK262914C] | 37.4957
COC(=O)c1cccc2c(C)c(C)[nH]c12 [CBK001563] | 100.352
O=C(O)c1ccc(NC(=O)c2ccccc2NC(=O)c2cccc(Br)c2)cc1 [CBK265517] | 97.4851
COc1cc(CNC(=O)NC(=O)C2CCN(C(C)=O)CC2)cc(OC)c1OC [CBK034833] | 101.203
Cc1noc(C)c1NC(=O)c1ccnc2ccccc12 [CBK200302] | 111.484
Cc1cc([N+](=O)[O-])ccc1NC(=O)Cn1cnc2c1c(=O)n(C)c(=O)n2C [CBK263162] | 109.197
O=C(c1ccco1)N1CCN(c2ccc(-c3cccc4cccnc34)cn2)CC1 [CBK037640] | 100.506
NC(=O)c1cc(C2CCCN(CC(=O)NCc3cccs3)C2)n[nH]1 (stereo not shown) [CBK305361] | 57.017

Compound | % of control remaining
CC(Cc1ccccn1)NC(=O)Cn1ccnc1 (stereo not shown) [CBK282069] | 95.3788
O=c1[nH]c2ncc(-c3ccncc3)nc2n1CC1CC1 [CBK064539] | 145.004
O=C(c1ccncc1)N1CCc2cc(-c3csc(C4CC4)n3)ccc21 [CBK288618] | 100.659
CCOc1cc(/C=N/Nc2nnc(C)n2N)ccc1O [CBK027460] | 11.5161
O=C1NCCNC(=O)C2(CCCCOc3ccccc31)CCNCC2 [CBK292074] | 69.643
O=S1(=O)CCC(Sc2nncc3ccccc23)C1 (stereo not shown) [CBK021586] | 85.6694
CCC(c1ccc2c(c1)CCO2)N1CCN(Cc2nc(C)no2)CC1 (stereo not shown) [CBK304237] | 51.3914
COCc1nc(C)c(C(=O)NC2CCCN(c3ccn(C)n3)C2=O)s1 (stereo not shown) [CBK306497] | 60.17
Cc1cc(C)nc(N(C#N)CC(=O)N2c3ccccc3CCc3ccccc32)n1 [CBK266509] | 91.7198
COc1ccccc1N1CCN(C(=O)Nc2ccc(Cl)cc2)CC1 [CBK155597] | 101.207
O=C(CCCN1C(=O)c2cccc3cccc(c23)C1=O)Nc1cccnc1 [CBK262560] | 97.4935
CC(C)C(NC(=O)N1c2ccccc2NC(=O)C1C(C)C)C(=O)O (stereo not shown) [CBK286670] | 67.033
COc1ccc(-c2nn(-c3ccccc3)cc2/C=C2/SC(=S)N(Cc3ccccc3)C2=O)c(C)c1 [CBK265107] | 106.168
O=C(NCc1cccnc1)c1ccccc1NS(=O)(=O)c1ccc(F)cc1 [CBK269754] | 79.661
Cc1cc(NS(=O)(=O)c2ccc(Oc3ccc(-c4ccccc4)cc3)nc2)no1 [CBK295343] | 94.9103
CC(=O)Nc1ccc(-c2ccc(C(=O)NCc3ccc(S(C)(=O)=O)cc3)cn2)cc1 [CBK158860] | 64.6165
O=C1CCCN1CCOc1nccnc1-c1ccsc1 [CBK106759] | 89.5188
CCS(=O)(=O)N1CCCCCC1c1nn(C)cc1Cl (stereo not shown) [CBK284672] | 95.4392
O=C(O)Cc1ccc(NC(=O)c2cccnc2C(=O)O)cc1 [CBK267397] | 89.1915
CCNC(=S)N[C@H]1CC[C@@]2(Cc3ccc(OC)cc3)CCN(C)[C@H]2C1 [CBK004257] | 109.789
